# Experimental data published in PubChem BioAssay AID504333 (National Center for Advancing Translational Sciences (NCATS), 2011).
# Values joined by “and” are separate entries in the source; they are usually repeats but may differ in a detail not shown here. Identical values can stand only once. Hit rate of the full screen: of about 360,000 compounds, about 16,000 (4.4%) were called active. Inconclusive results, whose numbers are uncertain, are shown with a selection of clear calls. The call rests on the fitted dose curve; in most records, active means well fitted inhibition curve with a large enough effect; inconclusive means small, poorly fitted or top-dose-only effect; inactive means no such curve, though single readings can be large or run the other way. Where the call is inconclusive, the potency comes from a doubtful curve fit.
# Target: Bromodomain adjacent to zinc finger domain protein 2B (Homo sapiens) (UniProt Q9UIF8)
# Sequence of UniProt Q9UIF8 (Q9UIF8 whole entry, looked up, the tested form may be a part): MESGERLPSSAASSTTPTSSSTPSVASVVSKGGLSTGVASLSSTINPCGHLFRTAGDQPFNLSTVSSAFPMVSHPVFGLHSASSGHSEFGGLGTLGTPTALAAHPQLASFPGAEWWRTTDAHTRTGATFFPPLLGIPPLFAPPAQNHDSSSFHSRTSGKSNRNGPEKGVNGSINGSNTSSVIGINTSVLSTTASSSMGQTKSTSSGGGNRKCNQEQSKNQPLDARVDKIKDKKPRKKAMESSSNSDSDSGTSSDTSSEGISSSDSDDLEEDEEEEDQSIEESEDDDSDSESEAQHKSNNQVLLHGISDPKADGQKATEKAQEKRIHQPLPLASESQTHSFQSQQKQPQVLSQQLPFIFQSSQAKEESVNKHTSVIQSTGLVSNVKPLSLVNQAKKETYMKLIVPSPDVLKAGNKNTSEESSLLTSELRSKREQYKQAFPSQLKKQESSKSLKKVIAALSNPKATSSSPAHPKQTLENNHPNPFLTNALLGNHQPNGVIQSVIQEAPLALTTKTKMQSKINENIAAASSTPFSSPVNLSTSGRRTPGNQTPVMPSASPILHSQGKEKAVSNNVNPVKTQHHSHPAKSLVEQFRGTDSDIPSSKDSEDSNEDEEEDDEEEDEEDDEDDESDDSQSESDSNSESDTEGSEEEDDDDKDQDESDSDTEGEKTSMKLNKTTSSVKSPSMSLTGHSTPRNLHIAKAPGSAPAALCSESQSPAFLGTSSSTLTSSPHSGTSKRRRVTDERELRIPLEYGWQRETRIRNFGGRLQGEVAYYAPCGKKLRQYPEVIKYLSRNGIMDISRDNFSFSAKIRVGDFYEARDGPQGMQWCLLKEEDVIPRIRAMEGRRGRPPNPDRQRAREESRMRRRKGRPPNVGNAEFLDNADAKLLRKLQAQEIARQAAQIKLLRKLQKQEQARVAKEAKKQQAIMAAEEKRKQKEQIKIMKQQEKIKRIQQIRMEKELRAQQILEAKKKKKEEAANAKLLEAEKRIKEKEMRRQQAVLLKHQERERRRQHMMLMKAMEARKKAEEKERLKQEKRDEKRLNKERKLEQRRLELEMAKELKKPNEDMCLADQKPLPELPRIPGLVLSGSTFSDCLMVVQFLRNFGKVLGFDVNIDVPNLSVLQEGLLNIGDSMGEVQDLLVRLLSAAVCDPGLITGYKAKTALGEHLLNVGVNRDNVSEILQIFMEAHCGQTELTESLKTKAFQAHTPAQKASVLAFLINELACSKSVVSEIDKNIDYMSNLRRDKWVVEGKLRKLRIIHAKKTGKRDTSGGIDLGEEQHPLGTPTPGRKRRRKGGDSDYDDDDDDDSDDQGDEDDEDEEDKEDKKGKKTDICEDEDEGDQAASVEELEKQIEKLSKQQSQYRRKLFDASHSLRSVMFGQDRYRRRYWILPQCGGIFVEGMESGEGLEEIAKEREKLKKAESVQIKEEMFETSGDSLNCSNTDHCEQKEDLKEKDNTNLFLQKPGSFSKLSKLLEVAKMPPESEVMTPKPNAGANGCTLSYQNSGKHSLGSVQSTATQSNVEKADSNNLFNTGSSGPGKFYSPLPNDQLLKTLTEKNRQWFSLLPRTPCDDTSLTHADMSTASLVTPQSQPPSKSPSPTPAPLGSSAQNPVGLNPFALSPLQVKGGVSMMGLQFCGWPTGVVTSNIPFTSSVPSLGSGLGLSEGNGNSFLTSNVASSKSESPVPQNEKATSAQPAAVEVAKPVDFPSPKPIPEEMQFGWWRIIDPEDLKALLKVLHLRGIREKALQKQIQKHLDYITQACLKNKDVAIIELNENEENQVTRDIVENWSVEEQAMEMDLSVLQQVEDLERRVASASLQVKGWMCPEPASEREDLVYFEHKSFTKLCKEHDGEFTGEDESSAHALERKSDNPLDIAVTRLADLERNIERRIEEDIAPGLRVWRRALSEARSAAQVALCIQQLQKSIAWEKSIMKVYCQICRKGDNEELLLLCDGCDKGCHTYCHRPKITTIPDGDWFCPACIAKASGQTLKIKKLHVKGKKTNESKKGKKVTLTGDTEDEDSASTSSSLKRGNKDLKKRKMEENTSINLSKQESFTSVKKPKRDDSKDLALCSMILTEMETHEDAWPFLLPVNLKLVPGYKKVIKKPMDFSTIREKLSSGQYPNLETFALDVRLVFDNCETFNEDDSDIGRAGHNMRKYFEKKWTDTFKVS
# Assay: qHTS Assay for Inhibitors of BAZ2B; further: nearly all actives have a fitted effect of over 60% in size
# Conditions: AlphaScreen BAZ2B-H3K14Ac peptide displacement; series mostly up to 114 µM
# In short: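 Multi-concentration screen (max 110 uM) measuring displacement of acetylated histone H3 peptide from BAZ2B by AlphaScreen, using 50 nM protein, 50 nM peptide and 10 ug/mL streptavidin donor plus Ni-chelate acceptor beads.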
# Potency means the concentration at half of the fitted maximal effect; tags describe the fitted curve by direction and shape.
row,SMILES,Potency
1,CCCC(=O)n1nc(-c2ccco2)nc1SCc1ccccc1,inactive
2,O=C(c1ccc(NC2=NC3CS(=O)(=O)CC3S2)cc1)N1CCN(c2ccccc2F)CC1 (centres undefined),"inconclusive: 100 µM [inhibitor, single point]"
3,Cc1onc(-c2ccccc2)c1C(=O)Nc1sc2c(c1C#N)CCC2,"inconclusive: 89.1 µM [inhibitor, single point]"
4,COc1ccc(N2CCN(c3cc(C)c4cccc(C)c4n3)CC2)cc1,"inconclusive: 25.1 µM [inhibitor, partial curve]"
5,Cc1ccc(S(=O)(=O)N2CCCC2)cc1C(=O)NCCN1CCOCC1,"inconclusive: 11.2 µM [inhibitor, full curve]"
6,O=C1CCN(Cc2ccccc2)CCN1[C@H](COc1ccccc1)c1ccccc1,"inconclusive: 79.4 µM [inhibitor, single point]"
7,O=C(/C=C/c1ccco1)N(Cc1ccccc1)C1CCS(=O)(=O)C1 (centres undefined),inactive
8,O=C(Nc1nnc(CCN2CCCCC2)s1)c1ccccc1Cl,inactive
9,Cc1ccc(S(=O)(=O)N2CCN(C(=O)c3sccc3C)CC2)cc1,"inconclusive: 89.1 µM [inhibitor, single point]"
10,Cc1ccc(C)c(S(=O)(=O)Nc2ccc3oc(C)c(C(=O)O)c3c2)c1,active: 50.1 µM
11,CC(O)CNc1ccc(-c2nn(C)c(=O)c3ccccc23)cc1[N+](=O)[O-] (centres undefined),"inconclusive: 70.8 µM [inhibitor, single point]"
12,Cc1ccc(Nc2nc(N)c3ccccc3n2)cc1C,"inconclusive: 56.2 µM [inhibitor, partial curve]"
13,CCOC(=O)N/N=C/c1cc(C)n(-c2cccc3ccccc23)c1C,"inconclusive: 44.7 µM [inhibitor, partial curve]"
14,Cc1ccccc1Cn1c2ccccc2c2cnn(CC(=O)NCCCN3CCN(C)CC3)c(=O)c21,"inconclusive: 79.4 µM [inhibitor, single point]"
15,CCOc1ccc(NC(=O)CCNS(=O)(=O)c2cccs2)cc1,inactive
16,CCCc1nc2ccccc2c(=O)n1/N=C/c1ccc(O)c(O)c1,active: 56.2 µM
17,COC(=O)c1ccc(-c2ccc(C(c3c(C)[nH][nH]c3=O)c3c(C)[nH][nH]c3=O)o2)cc1,active: 8.91 µM
18,COc1cccc(OC)c1C(=O)NC(=S)NNC(=O)[C@H]1C[C@@H]1c1ccccc1,inactive
19,CC(=O)NNc1[nH]c2c(c(=O)c1[N+](=O)[O-])c(=O)n(C)c(=O)n2C,"inconclusive: 50.1 µM [inhibitor, partial curve]"
20,Cc1cc(C)c2nc(N(CCN(C)C)C(=O)c3ccc(S(=O)(=O)N(C)CC4CCCO4)cc3)sc2c1 (centres undefined),"inconclusive: 50.1 µM [inhibitor, partial curve]"
21,COc1ccc(CCNc2nc(C)c(C(C)=O)s2)cc1OC,"inconclusive: 50.1 µM [inhibitor, partial curve]"
22,NS(=O)(=O)c1cccc(NC(=O)CN2CCN(Cc3ccc4c(c3)OCO4)CC2)c1,inactive
23,CCOCCn1c(=O)c2c(nc3n2CC(C)CN3Cc2ccccc2)n(C)c1=O (centres undefined),"inconclusive: 70.8 µM [inhibitor, single point]"

row,SMILES,Potency
1,COc1ccc(/C=C2\CCC/C(=C\c3ccc(OC)c(OC)c3OC)C2=O)c(OC)c1OC,"inconclusive: 35.5 µM [inhibitor, partial curve]"
2,COc1cccc(NC(=O)c2cc(CN3CCOCC3)on2)c1,inactive
3,COc1ccccc1/C=C\C=N\n1c(-c2ccc(Cl)cc2Cl)n[nH]c1=S,"inconclusive: 39.8 µM [inhibitor, full curve]"
4,Cc1ccccc1N(CC(=O)N/N=C/c1cc(Br)c(C)o1)S(C)(=O)=O,"inconclusive: 44.7 µM [inhibitor, partial curve]"
5,COc1ccc(-c2csc(N(CCCN3CCOCC3)C(=O)c3ccco3)n2)cc1,"inconclusive: 89.1 µM [inhibitor, single point]"
6,O=C(NC(=S)Nc1ccccc1O)c1ccccc1Cl,"inconclusive: 79.4 µM [inhibitor, single point]"
7,O=C(OCc1cc([N+](=O)[O-])cc2c1OCOC2)c1ccccn1,"inconclusive: 100 µM [inhibitor, single point]"
8,Cc1cccc(C)c1-n1c(C)cc(/C=N/NC(N)=S)c1C,active: 44.7 µM
9,Cc1cccc(-n2c(N)c(-c3nc4ccccc4n3C)c3nc4ccccc4nc32)c1,inactive
10,COc1ccc(-n2c(C)ccc2-c2ccccc2)cn1,"inconclusive: 70.8 µM [inhibitor, single point]"
11,COc1ccc(N2CCN(C(=O)c3ccc(Cn4nc(C)c([N+](=O)[O-])c4C)o3)CC2)cc1,"inconclusive: 44.7 µM [inhibitor, partial curve]"
12,Cc1ccccc1OCC(=O)Nc1cccc(Cl)c1C,"inconclusive: 89.1 µM [inhibitor, single point]"
13,O=C(CCl)Nc1ccccc1C(=O)Nc1ccc2c(c1)OCO2,inactive
14,COc1ccc(C(=O)/C=C/c2ccc(O)cc2)c(O)c1CC=C(C)C,"inconclusive: 35.5 µM [inhibitor, partial curve]"
15,O=C(NCCCN1CCOCC1)c1ccc(-c2ccc(Cl)cc2)o1,"inconclusive: 56.2 µM [inhibitor, partial curve]"
16,COc1cccc(/C=C/c2nc(C#N)c(N(C)Cc3ccccc3)o2)c1,"inconclusive: 3.16 µM [inhibitor, full curve]"
17,Cn1c(=O)cc(OCCCC(=O)Nc2ccccn2)c2ccccc21,"inconclusive: 79.4 µM [inhibitor, single point]"
18,Cn1c(CNc2ccccc2O)nc2ccccc21,"inconclusive: 89.1 µM [inhibitor, single point]"
19,Cc1cccc(N2C(S)=C(C#N)C(=O)NC23CCCCC3)c1,"inconclusive: 89.1 µM [inhibitor, single point]"
20,O=c1[nH]c(=S)[nH]c2[nH]c(=S)[nH]c12,active: 28.2 µM and active: 22.4 µM
21,C/C(=N\Nc1cc(N2CCCCC2)nc(C)n1)c1ccc(Br)cc1,"inconclusive: 50.1 µM [inhibitor, partial curve]"
22,COc1ccc2[nH]cc(CCNC(=O)Nc3ccccc3C)c2c1,inactive
23,CCOC(=O)c1[nH]cnc1C(=O)Nc1cccc(Cl)c1,active: 89.1 µM

row,SMILES,Potency
1,CCOC(=O)Cc1csc(NC(=S)NC(=O)c2ccccc2)n1,"inconclusive: 39.8 µM [inhibitor, partial curve]"
2,CCCCCCSC1=C(C#N)C(c2ccc(O)cc2)CC(=O)N1 (centres undefined),"inconclusive: 89.1 µM [inhibitor, single point]"
3,COc1ccc(OC)c(CCNC(=O)CCCc2nnc3n(C)c(=O)c4sccc4n23)c1,inactive
4,Cc1cccc(-c2cc3c(nn2)-c2ccccc2C3=O)c1,"inconclusive: 28.2 µM [inhibitor, full curve]"
5,O=c1c(Cl)c(N/N=C/c2ccc(Cl)cc2)cnn1-c1ccccc1,"inconclusive: 89.1 µM [inhibitor, single point]"
6,CCn1c(CSc2nccn2C)nc2cc(C(=O)O)ccc21,active: 50.1 µM
7,CCOC(=O)c1cc2c(=O)n3ccccc3nc2n(Cc2ccco2)c1=NC(=O)c1cc(C)cc(C)c1,inactive
8,COc1cc(CN2CCc3nc(Nc4ccc5c(c4)OCCO5)ncc3C2)cc(OC)c1OC,"inconclusive: 44.7 µM [inhibitor, partial curve]"
9,C=CCNC(=S)N/N=C1\CCS(=O)(=O)c2ccccc21,"inconclusive: 79.4 µM [inhibitor, single point]"
10,Cc1nnc(SC(C)C(=O)Nc2c(C)n(C)n(-c3ccccc3)c2=O)n1N (centres undefined),"inconclusive: 70.8 µM [inhibitor, partial curve, poor fit]"
11,Cc1ccc(NCC(=O)NNC2=NCCC2)c(C)c1,"inconclusive: 89.1 µM [inhibitor, single point]"
12,COc1cccc(-n2nnnc2SCC(=O)NC2CCCC2)c1,"inconclusive: 8.91 µM [inhibitor, single point]"
13,N#CC1=C(N)Oc2[nH]c(=S)[nH]c(=O)c2C12C(=O)Nc1ccccc12 (centres undefined),"inconclusive: 79.4 µM [inhibitor, partial curve]"
14,CN(Cc1ccccc1)C(=O)NC1CCCCC1,inactive
15,CC1=Nc2cc(C(=O)NCCCN3CCN(C)CC3)ccc2Sc2ccc(C)cc21,"inconclusive: 70.8 µM [inhibitor, single point]"
16,COc1cc2cc(C(=O)N[C@@H](Cc3ccccc3)C(=O)O)n(C)c2c(OC)c1OC,"inconclusive: 89.1 µM [inhibitor, single point]"
17,CCc1cc(=O)oc2cc(C)cc(OC(C)C(=O)NCCN3CCOCC3)c12 (centres undefined),inactive
18,O=C(/C=C\c1ccco1)Oc1cccc2cccnc12,active: 31.6 µM
19,O=C(CSc1nc2ccccc2n1Cc1ccc(F)c(Cl)c1)N1CCN(c2ccc(F)cc2)CC1,inactive
20,CCSc1nnc(NC(=O)C(C)(C(F)(F)F)C(F)(F)F)s1,"inconclusive: 89.1 µM [inhibitor, single point]"
21,CCOC(=O)c1cc(-c2ccccc2)sc1N,"inconclusive: 89.1 µM [inhibitor, single point]"
22,COc1ccc(CCNC(=O)c2ccc(CS(=O)(=O)c3ccc(C)cc3)o2)cc1OC,"inconclusive: 79.4 µM [inhibitor, single point]"
23,CCn1cc(C(=O)OCC(=O)c2cc(C)n(-c3cccc(C(F)(F)F)c3)c2C)c(=O)c2ccc(C)nc21,"inconclusive: 50.1 µM [inhibitor, partial curve]"
